Measured values published in patent US11457629B2, “Heteroarylphenylaminoquinolines and analogues” (Bayer Aktiengesellschaft, priority 2017, dated 2022).
Marks after values point to notes of the source that are not given here.

Method: In the following, measurement of Log P values was performed according to EEC directive 79/831 Annex V.A8 by HPLC (High Performance Liquid Chromatography) on reversed phase columns with the following methods: • ^[a]
If more than one Log P value is available within the same method, all the values are given and separated by “+”.
Calibration was done with straight-chain alkan2-ones (with 3 to 16 carbon atoms) with known Log P values (measurement of Log P values using retention times with linear interpolation between successive alkanones). Lambda-max-values were determined using UV-spectra from 200 nm to 400 nm and the peak values of the chromatographic signals.

Row | logP | Log P | SMILES
1 | 2.40 ^[a] |  | Cc1ccc(Nc2cnc3ccccc3c2C)c(-c2c(C)cnn2C)c1F [Example I-198]
2 |  | 3.13 ^[a] | Cc1cnn(C)c1-c1cc(F)ccc1Nc1cc2ccc(F)c(F)c2nc1C [Example I-297]
3 | 3.37 ^[a] |  | CCn1nccc1-c1c(F)cccc1Nc1cc2ccc(F)c(F)c2nc1C [Example I-087]
4 | 3.21 ^[a] |  | CCn1nccc1-c1ccccc1Nc1cnc2c(F)c(F)ccc2n1 [Example I-175]
5 | 2.30 ^[a] |  | Cc1c(Nc2ccc(Cl)cc2-c2ccnn2C)cnc2ccccc12 [Example I-217]
6 |  | 4.03 ^[a] | Cc1nc2c(F)c(F)ccc2cc1Nc1cccc(F)c1-c1ccnn1Cc1ccccc1 [Example I-299]
7 | 3.55 ^[a] |  | CC(C)n1nccc1-c1c(F)cccc1Nc1cnc2c(F)c(F)ccc2c1 [Example I-100]
8 |  | 1.53 ^[a] | CCn1nccc1-c1ccccc1Cc1cc2ccccc2nc1C [Example I-349]
9 |  | 3.19 ^[a] | CC(C)n1nccc1-c1ccccc1Cc1cnc2c(F)cccc2c1 [Example I-352]
10 |  | 3.92 ^[a] | CCn1nccc1-c1c(Nc2nc3ccc(F)c(F)c3nc2C)ccc(F)c1F [Example I-251]
11 | 2.84 ^[a] |  | Cn1nccc1-c1ccccc1Nc1cnc2c(F)c(F)ccc2n1 [Example I-174]
12 |  | 3.29 ^[a] | CCn1ncc(F)c1-c1c(F)cccc1Nc1nc2ccccc2nc1C [Example I-312]
13 | 3.19 ^[a] |  | CC(C)(C)n1nccc1-c1ccccc1Nc1cnc2ccccc2c1 [Example I-009]
14 |  | 2.66 ^[a] | Cn1nccc1-c1cc(OC(F)(F)F)ccc1Nc1cnc2ccnn2c1 [Example I-259]
15 | 2.86 ^[a] |  | Fc1ccc(Cn2ccc(-c3ccccc3Cc3cnc4ccccc4c3)n2)cc1 [Example I-202]
16 | 4.27 ^[a] |  | Fc1ccc2nc(Nc3ccccc3-c3ccnn3CCc3ccccc3)cnc2c1F [Example I-136]
17 |  | 4.53 ^[a] | Cc1nc2c(F)c(F)ccc2cc1Nc1ccc(F)cc1-c1cc(C(F)(F)F)nn1C(C)C [Example I-295]
18 | 2.92 ^[a] |  | Cc1nc2c(F)c(F)ccc2cc1Nc1ccccc1-c1ccnn1C [Example I-148]
19 | 2.70 ^[a] |  | Cn1nccc1-c1c(F)cccc1Nc1cnc2c(F)cccc2c1 [Example I-081]
20 |  | 4.11 ^[a] | Cc1nc2c(F)c(F)ccc2cc1Cc1ccccc1-c1ccnn1CC(C)C [Example I-289]
21 | 3.51 ^[a] |  | Cn1nccc1-c1cc(Cl)ccc1Nc1cnc2ccccc2c1Cl [Example I-219]

Row | logP | Log P | SMILES
22 |  | 2.98 ^[a] | CCn1nccc1-c1c(F)ccc(F)c1Nc1cnc2c(F)c(F)ccc2c1 [Example I-265]
23 |  | 3.25 ^[a] | CCn1nccc1-c1c(F)c(F)cc(F)c1Nc1cnc2ccccc2c1Cl [Example I-317]
24 | 1.37 ^[a] |  | O=C(O)c1ncsc1-c1ccccc1Cc1cnc2ccccc2c1 [Example I-199]
25 | 4.25 ^[a] |  | Cc1ccc(Nc2c(C)nc3c(F)c(F)ccc3c2C)c(-c2c(Br)cnn2C)c1F [Example I-112]
26 | 2.15 ^[a] |  | Cc1ccc(Nc2cnc3ccccc3c2C)c(-c2ccnn2C)c1F [Example I-197]
27 | 4.18 ^[a] |  | Fc1ccc(Nc2cnc3c(F)c(F)ccc3n2)c(-c2ccnn2CCc2ccccc2)c1 [Example I-188]
28 | 3.42 ^[b] |  | CC1=NOC(c2c(F)cccc2Nc2cc3ccc(F)c(F)c3nc2C)C1 (racemic) [Example I-036]
29 | 3.50 ^[b] |  | CCC1=NOC(c2ccccc2Nc2cc3ccc(F)c(F)c3nc2C)C1 (stereo not shown) [Example I-017]
30 |  | 3.83 ^[a] | Cc1nc2c(F)c(F)ccc2cc1Nc1ccc(F)cc1-c1cc(C(F)(F)F)nn1C [Example I-300]
31 | 3.21 ^[a] |  | Cc1ccc(Nc2cnc3c(F)c(F)ccc3c2)c(-c2ccnn2C)c1 [Example I-227]
32 |  | 3.19 ^[a] | CCn1nccc1-c1c(F)ccc(F)c1Nc1cnc2c(F)c(F)ccc2c1F [Example I-264]
33 | 2.88 ^[a] |  | CC1CON=C1c1ccccc1Nc1cnc2ccccc2c1 (racemic) [Example I-059]
34 | 3.69 ^[a] |  | Cc1nc2c(F)c(F)ccc2nc1Nc1ccc(Cl)cc1-c1ccnn1C [Example I-214]
35 |  | 3.99 ^[a] | Cc1nc2c(F)c(F)ccc2cc1Nc1ccc(F)cc1-c1ccnn1CC(C)C [Example I-325]
36 |  | 3.59 ^[a] | Cc1nc2c(F)c(F)ccc2cc1Nc1ccc(F)cc1-c1ccnn1C(C)C [Example I-291]
37 | 4.39 ^[a] |  | Clc1c(Nc2ccccc2-c2ccnn2CCc2ccccc2)cnc2ccccc12 [Example I-167]
38 | 1.88 ^[a] |  | CC1=NOC(c2ccccc2Nc2cnc3ccccc3c2)C1 (stereo not shown) [Example I-011]
39 | 3.35 ^[a] |  | Cc1ccc(Nc2nc3ccc(F)c(F)c3nc2C)c(-c2ccnn2C)c1 [Example I-213]
40 |  | 3.83 ^[a] | Cn1nccc1-c1cc(OC(F)(F)F)ccc1Nc1cnc2ccccc2c1Cl [Example I-256]
41 |  | 3.46 ^[a] | Cc1nc2c(F)c(F)ccc2cc1Nc1cccc(F)c1-c1c(Cl)cnn1C [Example I-304]
42 | 3.97 ^[a] |  | Cc1nc2ccccc2nc1Nc1cccc(F)c1-c1ccnn1C(C)C [Example I-103]

Row | logP | Log P | SMILES
43 | 2.90 ^[b] |  | CCC1=NOC(c2ccccc2Nc2cnc3ccccc3c2)C1 (stereo not shown) [Example I-015]
44 | 4.49 ^[a] |  | Cc1nc2c(F)c(F)ccc2nc1Nc1ccc(F)cc1-c1ccnn1CCc1ccccc1 [Example I-173]
45 | 3.51 ^[a] |  | Cc1nc2c(F)c(F)ccc2cc1Nc1ccc(Cl)cc1-c1ccnn1C [Example I-230]
46 | 3.50 ^[a] |  | Cc1ccc(Nc2nc3ccccc3nc2C)c(-c2c(Br)cnn2C)c1F [Example I-177]
47 |  | 3.21 ^[a] | Cc1cnn(C)c1-c1ccccc1Cc1cc2ccc(F)c(F)c2nc1C [Example I-292]
48 |  | 2.00 ^[a] | Cn1nccc1-c1c(F)ccc(F)c1Nc1c[nH]c2c(F)c(F)ccc2c1=O [Example I-272]
49 | 3.96 ^[a] |  | Cc1nc2c(F)c(F)ccc2nc1Nc1ccc(OC(F)(F)F)cc1-c1ccnn1C [Example I-235]
50 |  | 3.17 ^[a] | CCn1nccc1-c1c(F)ccc(F)c1Nc1cnc2ccccc2c1Cl [Example I-315]
51 | 1.95 ^[a] |  | CCn1nccc1-c1ccccc1Nc1cnc2ccccc2c1C [Example I-155]
52 | 3.85 ^[a] |  | Cc1nc2c(F)c(F)ccc2cc1N(C)c1cccc(F)c1-c1ccn(C(C)C)n1 [Example I-047]
53 | 2.77 ^[a] |  | CC(C)(C)n1nccc1-c1ccccc1Cc1cnc2ccccc2c1 [Example I-204]
54 | 4.51 ^[a] |  | Cc1nc2c(F)c(F)ccc2cc1Nc1ccccc1C1=NOC(C)(C)C1 [Example I-041]
55 |  | 4.08 ^[a] | Clc1cccc2cc(Cc3ccccc3-c3ccnn3Cc3ccccc3)cnc12 [Example I-338]
56 | 2.98 ^[b] |  | CCC1=NOC(c2ccccc2Nc2cnc3c(F)cccc3c2)C1 (stereo not shown) [Example I-018]
57 |  | 2.96 ^[a] | Cc1nc2c(F)c(F)ccc2nc1Cc1ccccc1-c1ccnn1C [Example I-344]
58 |  | 3.76 ^[a] | Cc1nc2c(F)c(F)ccc2cc1Nc1cccc(F)c1-c1c(C(F)(F)F)cnn1C [Example I-282]
59 | 2.85 ^[a] |  | Cc1c(Nc2ccccc2-c2ccnn2CCc2ccccc2)cnc2ccccc12 [Example I-187]
60 | 3.74 ^[a] |  | Cc1cc(C)c(Nc2nc3ccc(F)c(F)c3nc2C)c(-c2c(Br)cnn2C)c1F [Example I-131]
61 | 1.86 ^[a] |  | Cc1ccc(Nc2cnc3ccccc3c2C)c(-c2ccnn2C)c1 [Example I-216]
62 | 3.33 ^[a] |  | Cc1ccc(Nc2nc3ccccc3nc2C)c(-c2c(C)cnn2C)c1F [Example I-193]
63 | 4.44 ^[a] |  | Cc1nc2c(F)c(F)ccc2cc1Nc1cccc(F)c1-c1ccn(C)n1 [Example I-052]

Row | logP | Log P | SMILES
64 | 2.92 ^[a] |  | CC(C)c1ccnn1-c1ccccc1Nc1cnc2ccccc2c1 [Example I-070]
65 | 4.25 ^[a] |  | Cc1nc2ccccc2nc1Nc1ccccc1-c1ccnn1CCc1ccccc1 [Example I-171]
66 | 5.14 ^[a] |  | Cc1nc2c(F)c(F)ccc2cc1Nc1cccc(F)c1-c1ccn(C(C)C)n1 [Example I-044]
67 | 3.65 ^[b] |  | CC1=NOC(C)(c2ccccc2Nc2cc3ccc(F)c(F)c3nc2C)C1 (stereo not shown) [Example I-022]
68 | 0.47 ^[a] |  | Cn1ccnc1-c1ccccc1Cc1cnc2ccccc2c1 [Example I-073]
69 | 3.42 ^[a] |  | CCn1nccc1-c1ccccc1Nc1nc2ccc(F)c(F)c2nc1C [Example I-191]
70 | 2.86 ^[a] |  | Cc1cnn(C)c1-c1c(F)cccc1Nc1c(C)nc2c(F)c(F)ccc2c1C [Example I-194]
71 | 3.29 ^[a] |  | CC(C)n1nccc1-c1c(F)cccc1Nc1cnc2c(F)cccc2c1 [Example I-099]
72 | 5.93 ^[a] |  | CC(C)c1csc(-c2ccccc2Nc2cnc3ccccc3c2)n1 [Example I-055]
73 | 1.37 ^[a] |  | Cc1nc2ccccc2cc1Nc1ccccc1-c1ccnn1C [Example I-008]
74 |  | 4.58 ^[a] | Cc1nc2c(F)c(F)ccc2cc1Nc1cccc(F)c1-c1ccnn1CC(F)(F)F [Example I-285]
75 |  | 3.39 ^[a] | CCn1ncc(F)c1-c1c(F)ccc(F)c1Nc1cnc2ccccc2c1Cl [Example I-318]
76 | 3.73 ^[a] |  | Cc1nc2c(F)cccc2cc1Nc1ccccc1C1=NOCC1C (racemic) [Example I-057]
77 |  | 3.65 ^[a] | CCn1nccc1-c1c(Cl)cccc1Cc1cc2ccc(F)c(F)c2nc1C [Example I-334]
78 | 3.01 ^[a] |  | Cn1nccc1-c1c(Nc2cnc3c(F)c(F)ccc3c2)ccc(F)c1F [Example I-238]
79 | 3.70 ^[a] |  | CC(C)n1ccc(-c2ccccc2Nc2cnc3ccccc3c2)n1 [Example I-003]
80 |  | 2.71 ^[a] | Cn1nccc1-c1c(F)ccc(F)c1Nc1cnc2c(F)c(F)ccc2c1 [Example I-271]
81 | 2.43 ^[a] |  | CC(C)c1ccn(-c2ccccc2Cc2cnc3ccccc3c2)n1 [Example I-203]
82 | 4.03 ^[a] |  | Cn1nccc1-c1cc(Cl)ccc1Nc1cnc2c(C(F)(F)F)cccc2c1 [Example I-222]
